# Laboratory results published in PMC12136788.
# The other results are listed elsewhere or left out.
# T1: UNK ZnF1-3 (human, UniProt Q9C0B0 31-174)
# T1 sequence: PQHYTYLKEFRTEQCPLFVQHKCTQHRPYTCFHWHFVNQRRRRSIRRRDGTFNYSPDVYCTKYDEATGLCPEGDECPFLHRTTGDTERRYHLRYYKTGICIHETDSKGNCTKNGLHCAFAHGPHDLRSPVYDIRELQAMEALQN
# B1: chr18:9993692:9993693:+_ENSMUSG00000024287_ENSMUST00000025137|mus_mus|FALSE|FALSE (ssRNA)
# RNA: GGGAGUUCUACAGUCCGACGAUCGGAGCACCAGCCAACUGUACAAUAGCUGUUAUAAAAGUGUUUAUUGUUUACCAAAACCAGUGAACCUUUUAUCAAAUGCUGCUUGGUAACAAAAUCUUAUCACUGUUUAAUAAAAAAGAACAACAGAGGAUUGAGCAUCA
# B2: chr4:12084866:12084867:-_ENSMUSG00000028218_ENSMUST00000108285|mus_hu|FALSE|FALSE (ssRNA)
# RNA: GGGAGUUCUACAGUCCGACGAUCUAAAUCUUCAUCUUCAUCAAUGUUUUGUAUAUUCUGGUAGGCAGCAGUGUAGACCUCUAAAGCUUUGCCGUGAAAUAACAUUUCGAUUGUGAUAAAUUCAGAAAAUAUAGUCUUUAUAUCCAACAGAGGAUUGAGCAUCA
# B3: chr5:80946147:80946148:-_ENSG00000145687_ENST00000505980|hu_mus|FALSE|FALSE (ssRNA)
# RNA: GGGAGUUCUACAGUCCGACGAUCUGUCUGAGCCGAUUUCUGAGCUCCUACAUGGAGCAGAUAUUCAUACACGUAGAGUGCUAACUUCUCCCGGGCCUGGCUGUCGGACGGGACGGCGCUGCUGUUACUCUUGCCUUUGCCGUACAACAGAGGAUUGAGCAUCA
# B4: chr9:135554620:135554621:+_ENSG00000125484_ENST00000372146|hu_hu|FALSE|FALSE (ssRNA)
# RNA: GGGAGUUCUACAGUCCGACGAUCUUCUUGUAAAAAUUGAGGGAUAUGUUUAUCUUUUAAAAUCUUCCAGCGUACUAGGUCUAUUAAAUCUACCUGCUUAAAAAGGUUUUGAACUGAAGAUUCCAGGAGCUGAGCAGCUGCCUCCAACAGAGGAUUGAGCAUCA
# B5: chr2:198351390:198351391:-_ENSG00000144381_ENST00000345042|hu_hu|FALSE|FALSE (ssRNA)
# RNA: GGGAGUUCUACAGUCCGACGAUCUUAUUCUCACUCUCCACAGAAAGGCUGCUUAACUUCUCAUCUGGUGGUGGCAAGCACUAAAAUCCUGAUUUUAACAGAAUAGUAGUAAAAAUGCCUCAGUGAUUUAAGUUGAAAGCAGUACAACAGAGGAUUGAGCAUCA
# B6: chr3:9412954:9412955:+_ENSG00000134077_ENST00000452837|hu_mus|hu_hu_hu_mus_False|18_78 (ssRNA)
# RNA: GGGAGUUCUACAGUCCGACGAUCGGUUGAUAUCUCUUCUUUGAUGGCUGGAUUUUCAUAAUAAUCUAAGAUAUGUGAAUCUGAAGUGCUGCUGGCAUGCUUUUUCUUACCAUCUUUCUGAUCGAUUUUGUCUCCUUGUCCACACAACAGAGGAUUGAGCAUCA
# B7: 97314039_97317724_766_3pUTR_ENSMUSG00000039361_ENSMUST00000049537|mouse|control|control (ssRNA)
# RNA: GGGAGUUCUACAGUCCGACGAUCUCUGUGUUCAUUGUUCUCAUAACUCCAUCAGCUCCUCUCUUCACUUUUGUGAAAUCGAAUGCAACUUGUCUGUAUGAAACUGCUUUUUCAUUUAAGUAUCUACUAUACCGUCUAAUAAAUCAACAGAGGAUUGAGCAUCA
# B8: chr12:7078717:7078718:-_ENSG00000215021_ENST00000535923|hu_hu|FALSE|FALSE (ssRNA)
# RNA: GGGAGUUCUACAGUCCGACGAUCUUUGGAGCCUGUAGGGGAGGAGAUUUUUCGAGGUCUGGCCCGAAUGUCAUAGAUAAUGGGGUACUGGAACCAAGGGAUCCUGAAGUGAAGGCCCUCGGCCAGGAUAGUGUCCUGCUGCACCAACAGAGGAUUGAGCAUCA
# B9: chr1:184392483:184392484:+_ENSMUSG00000026510_ENSMUST00000117245|mus_mus|motif|central (ssRNA)
# RNA: GGGAGUUCUACAGUCCGACGAUCCAUUUUUAAAACCAGCUAUGAUCUUGACAAAUACAGGUAAAUCUAUAACAAAUCUCGGAUUUCCAAGAUACAAAAAGACAAUAAAUAUAGAUUCAAAUUCAAUCUAAAAACAAGAUUCUACAACAGAGGAUUGAGCAUCA
# B10: chr3:10015032:10015033:+_ENSMUSG00000027533_ENSMUST00000029046|mus_mus|mus_mus_mus_hu_True|8_48 (ssRNA)
# RNA: GGGAGUUCUACAGUCCGACGAUCGUUUUUACCAUCACAAGUGAUGAUACAAUCUGGCUUGGCCAUUGCGCCCAUUUUUCGCAAAGCCAGUCCUACUCCUAGCUCCUUCAUGUAUUCAUCAAAGCCUUGGCUUUCCACCAGGCGCAACAGAGGAUUGAGCAUCA
# B11: chr4:95202638:95202639:+_ENSG00000163104_ENST00000354268|hu_mus|motif|central (ssRNA)
# RNA: GGGAGUUCUACAGUCCGACGAUCUAAGAGAACCUCUAGUAUAUCCAGCAUCAUGGUAAACUGGCUGAAUAAUACAACUCGGUCACCCUUCUGUUUCAACUCAGACAAGAUGCAUCCUAAGGCUCGGAAUUUCCCAGAAUCUAACAACAGAGGAUUGAGCAUCA
# B12: chr7:99968543:99968544:+_ENSMUSG00000030643_ENSMUST00000032879|mus_mus|FALSE|FALSE (ssRNA)
# RNA: GGGAGUUCUACAGUCCGACGAUCAAAGACCCUGAGUGAAUCUUCGGACUAGGCACGUCUUUCCCACUCCAGCGUUGCCAAUUAAAACAAUUUUGAACAGGAAAUCAUAAUCUUCCAUACUCAUUUACACAGCUGGUUUGGGAUCAACAGAGGAUUGAGCAUCA
# B13: 42935089_42936028_1257_CDS_ENSG00000057935_ENST00000405094|human|control|control (ssRNA)
# RNA: GGGAGUUCUACAGUCCGACGAUCUCUAACACGAGGGUCCUCUGUAGUUGGGCUAGGAGAUAACUUCUCUUCUUCUGACUGGGUGGGCAUUUUCAAGCCUCCAUAUUUUUUCCAAUAAAGCCAACAAAUUGCACAUAAUCUACACAACAGAGGAUUGAGCAUCA
# B14: chr11:60016922:60016923:-_ENSMUSG00000020538_ENSMUST00000020846|mus_hu|FALSE|FALSE (ssRNA)
# RNA: GGGAGUUCUACAGUCCGACGAUCCAGCUUAUGGUAGACCAGGGCUGCGUCUCGGGCGCUGGCGCUAGCAUCCACUCGCAGAGCACAGUCCUGCUGCAGGCCCCCUGCCCGGCCUGCCAGCCAGCGGCCCACCCAGAGACGCUGCAACAGAGGAUUGAGCAUCA
# Molecular target: T1, UNK ZnF1-3
# Assay: nsRBNS (natural sequence RNA bind-n-seq); RBNS binding buffer (assumed for nsRBNS): 25 mM Tris pH 7.5, 150 mM KCl, 3 mM MgCl2, 0.01% Triton X-100, 500 ug/ml BSA, 20 U/ml SUPERase-In, 4 C; UNK is unkempt and MSI1 is Musashi-1; names of the RNAs are library labels; protein concentration not given here; high values mean tight binding
row,Binder,binding signal
1,B1,1.11 enrichment R
2,B2,0.943 enrichment R
3,B3,0.582 enrichment R
4,B4,1.08 enrichment R
5,B5,1 enrichment R
6,B6,0.587 enrichment R
7,B7,0.666 enrichment R
8,B8,1.32 enrichment R
9,B9,0.681 enrichment R
10,B10,0.567 enrichment R
11,B11,0.855 enrichment R
12,B12,1.1 enrichment R
13,B13,0.813 enrichment R
14,B14,0.798 enrichment R
